Results from the antibiotic and cytotoxicity screens of Wong et al. (2023).
The list shows a part of the results.

Each molecule was assayed on HSkMC (human skeletal muscle cells) (assay: cytotoxicity call (relative viability < 0.9)). Conditions: 10 µM.

| SMILES | cytotoxicity call |
| --- | --- |
| Cc1ccc(S(=O)(=O)Nc2ccc3c(c2)C(=O)N([C@@H](C)CO)C[C@H](C)[C@H](CN(C)Cc2ccc(Oc4ccccc4)cc2)O3)cc1 | inactive |
| C[C@@H]1CCCCO[C@@H](CN(C)C(=O)Nc2ccc3c(c2)OCO3)[C@H](C)CN([C@@H](C)CO)C(=O)c2cc(NS(=O)(=O)c3ccccc3)ccc2O1 | inactive |
| Cc1cccc(N2CCC(N)CC2)c1 | inactive |
| O=C(C[C@@H]1C[C@H]2c3cc(NC(=O)C4CCOCC4)ccc3O[C@H]2[C@@H](CO)O1)NCCN1CCCCC1 | inactive |
| COc1cccc(Nc2ncnn3ccc(CN4CC[C@@H](N)[C@H](O)C4)c23)c1 | inactive |
| C[C@@H]1CCCCO[C@@H](CN(C)C(=O)Nc2ccccc2)[C@@H](C)CN([C@@H](C)CO)C(=O)c2cc(NC(=O)Nc3ccc(F)cc3)ccc2O1 | inactive |
| O=C(O)c1cc(O[C@@H]2O[C@H](CO)[C@@H](O)[C@H](O)[C@H]2O)c2ccccc2c1O | inactive |
| O=C(O)CCN1C(=O)NC2(CCCC2)C1=O | inactive |
| O=C(C[C@@H]1CC[C@@H]2[C@H](COC[C@H](O)CN2C(=O)Nc2ccc(Cl)c(Cl)c2)O1)NCc1ccc(Cl)c(Cl)c1 | inactive |
| COCC(=O)Nc1ccc2c(c1)C(=O)N(C)C[C@H](OC)[C@H](C)CN(Cc1ccccc1F)[C@H](C)CO2 | inactive |
| COc1cccc(S(=O)(=O)N[C@@H]2CC[C@@H](CCn3cc(-c4ccccc4OC)nn3)O[C@H]2CO)c1 | inactive |
| C[C@@H]1CCCCO[C@@H](CN(C)S(=O)(=O)c2cccs2)[C@H](C)CN([C@H](C)CO)C(=O)c2cc(NC(=O)CCC(F)(F)F)ccc2O1 | inactive |
